# Assay results as given in PubChem BioAssay AID2675 (National Center for Advancing Translational Sciences (NCATS), 2010).
# Out of some 280,000 compounds screened, about 100 (0.036%) were called active. Inconclusive results, whose numbers are uncertain, are shown with a selection of clear calls. Calls follow the shape of the dose curve; as a rule, active = well fitted inhibition curve with a large enough effect in the signal ratio, with a control signal flat (not every such curve was filed as active); inconclusive = small, poorly fitted or top-dose-only effect, or effect the other way, or a change in a side signal; inactive = no such curve, though single readings can be large or run the other way; the % refers to the signal ratio. Potencies beside an inconclusive call are fits to weak or partial responses and may not hold up. A note “side channel” means that the fit belongs to a control or component signal, not to the main read-out.
# Target: Muscleblind-like protein 1 (Homo sapiens) (UniProt Q9NR56)
# Sequence of UniProt Q9NR56 (Q9NR56 whole entry, looked up): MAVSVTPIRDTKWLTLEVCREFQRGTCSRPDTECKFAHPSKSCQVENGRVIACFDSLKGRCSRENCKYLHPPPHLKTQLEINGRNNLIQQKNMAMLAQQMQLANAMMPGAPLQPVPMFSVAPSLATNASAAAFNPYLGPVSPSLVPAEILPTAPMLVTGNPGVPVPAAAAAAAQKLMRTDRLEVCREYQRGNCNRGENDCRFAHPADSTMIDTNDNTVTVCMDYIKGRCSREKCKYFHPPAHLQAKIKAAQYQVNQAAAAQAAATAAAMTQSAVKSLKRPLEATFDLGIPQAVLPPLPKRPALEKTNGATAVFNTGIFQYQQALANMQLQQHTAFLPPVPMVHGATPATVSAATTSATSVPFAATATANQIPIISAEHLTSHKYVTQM
# Test: qHTS Assay for Inhibitors of MBNL1-poly(CUG) RNA binding
# Conditions: TR-FRET MBNL1-His/biotin-(CUG)12 binding, 665/545 ratio; activity change, negative = inhibition: at 57.5 µM (top of the series)
# Method in brief: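 TR-FRET between His-tagged MBNL1 and biotin-(CUG)12 RNA, detected with Tb anti-His antibody (0.055 ng/ul) and streptavidin-XL665 (5 nM), 60 min at room temperature. Compounds titrated 92 nM to 58 uM; 665/545 nm ratio normalized to buffer and complex controls.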
# % is scaled to controls: 0 for no effect and ±100 for the full control effect; potency is read from the fitted curve at half-maximal effect; tags tell the direction and shape of the fitted curve or compound fluorescence and quenching.
SMILES,Potency,"activity change, negative = inhibition"
CCOC(=O)C1(CCOC)CCN(Cc2ccc3nonc3c2)CC1,"inconclusive: 25.1 µM [quencher, side channel, single point]",
COc1ccc([N+](=O)[O-])cc1NS(=O)(=O)Cc1ccccc1,"inconclusive: 17.8 µM [quencher, side channel, single point]",
O=C(Nc1cccc([N+](=O)[O-])c1)C1CCN(C(=O)Cc2ccccc2)CC1,"inconclusive: 14.1 µM [quencher, partial curve]",
Cc1ccc(OC(F)F)c(NC(=O)Nc2cccc(C(F)(F)F)c2)c1,,inactive: -4.36%
CCCN1CCC(=NNc2ccc(S(=O)(=O)N(CC)CC)cc2[N+](=O)[O-])CC1,"inconclusive: 15.8 µM [quencher, partial curve]",
COc1ccc(S(=O)(=O)NNC(=O)c2ccc([N+](=O)[O-])cc2)cc1,"inconclusive: 35.5 µM [quencher, side channel, partial curve]",
CCn1c(Cc2ccccc2)nnc1SCC(=O)Nc1ccc(OC)cc1,"inconclusive: 79.4 µM [inhibitor, single point]",
Oc1ccc(C2=Nn3c(nnc3-c3ccco3)SC2)cc1O,"inconclusive: 25.1 µM [quencher, side channel, single point]",
COC(=O)C1=C(C)N(C(C)c2ccccc2)C(=O)C1 (configuration not stated),"inconclusive: 11.2 µM [fluorescent, side channel, partial curve]",
CC(=O)c1sc2nsc(SCCN3CCCC3)c2c1N,"inconclusive: 25.1 µM [quencher, side channel, partial curve, poor fit]",
CCN(CC)S(=O)(=O)c1ccc(NC2c3ccccc3C(=O)N2CCN2CCOCC2)cc1 (configuration not stated),"inconclusive: 1.58 µM [quencher, side channel, full curve, poor fit]",
O=C(O)c1ccc(N/N=C/c2c[nH]c3ccccc23)cc1,"inconclusive: 31.6 µM [quencher, side channel, single point]",
Cc1ccc2c(c1)C(=O)c1c(C(=O)O)cccc1-2,"inconclusive: 28.2 µM [quencher, side channel, partial curve]",
COC(=O)C1=C(C)NC2=C(C(=O)c3ccccc32)C1c1ccc(-c2ccc(C(=O)O)cc2)o1 (configuration not stated),"inconclusive: 15.8 µM [quencher, side channel, partial curve]",
COc1cccc2cc(C(=O)NCc3ccco3)c(=O)oc12,"inconclusive: 31.6 µM [quencher, side channel, partial curve, poor fit]",
Cc1ccccc1C(=O)c1cccn1CC(=O)NCCCc1ccccc1,,inactive: 16.2%
O=C(COc1ccc([N+](=O)[O-])cc1)N/N=C/c1cc([N+](=O)[O-])ccc1N1CCOCC1,"inconclusive: 3.98 µM [quencher, side channel, single point]",
O=C(c1ccc(Cl)c([N+](=O)[O-])c1)N(Cc1ccc(Cl)cc1)C1CCS(=O)(=O)C1 (configuration not stated),"inconclusive: 39.8 µM [quencher, single point]",
COc1ccccc1N1C(=O)C2C(C(=O)c3ccccc3)=NN(c3ccc(Br)cc3)C2C1=O (configuration not stated),"inconclusive: 5.01 µM [fluorescent, side channel, single point]",
COc1ccc(NS(=O)(=O)c2cc(-c3cnc(C4CC4)o3)ccc2C)cc1,,inactive: -6%
N/C(=N\OC(=O)c1cccc(F)c1)c1cccc([N+](=O)[O-])c1,"inconclusive: 17.8 µM [quencher, side channel, partial curve]",

SMILES,Potency,"activity change, negative = inhibition"
Cn1ncc(Cl)c1C(=O)N1CCN(C(=O)c2ccco2)CC1,,inactive: -6.42%
COc1ccc(NC(=O)c2ccc(-n3cnnn3)cc2)c([N+](=O)[O-])c1,"inconclusive: 12.6 µM [quencher, side channel, partial curve]",
Oc1[nH]c2ccccc2c1N=Nc1cccc(Cl)c1,,inactive: 3.72%
CC(NC(=O)C(=O)N1CCCCC1)C(c1cccs1)N1CCN(c2ccccc2)CC1 (configuration not stated),,inactive: -9.82%
O=[N+]([O-])c1ccc(S(=O)(=O)c2ccccc2)nc1,"inconclusive: 12.6 µM [quencher, partial curve]",
Cc1ccc(Cn2c(=N)c(C(=O)NCc3ccco3)cc3c(=O)n4ccccc4nc32)cc1,"inconclusive: 14.1 µM [quencher, side channel, partial curve]",
COC(=O)c1sccc1NC(=O)c1ccccc1[N+](=O)[O-],"inconclusive: 11.2 µM [quencher, side channel, partial curve]",
O=[N+]([O-])c1ccc(Cl)c(S(=O)(=O)Nc2ccc(S(=O)(=O)N3CCOCC3)cc2)c1,"inconclusive: 39.8 µM [quencher, single point]",
CCN1C(=O)N/C(=C/c2cc(C)n(Cc3ccccc3)c2C)C1=O,,inactive: 32.3%
COC(=O)c1ccccc1NC(=S)N(Cc1ccc2c(c1)OCO2)Cc1cc2ccc(C)cc2[nH]c1=O,,inactive: 66.8%
Cc1cc(C)c(C#N)c(SCC(=O)c2cccs2)n1,"inconclusive: 6.31 µM [quencher, side channel, partial curve]",
CCOC(=O)C1CCCN(C(=O)c2cn(C)c(=O)c3cc(OC)c(OC)cc23)C1 (configuration not stated),"inconclusive: 63.1 µM [inhibitor, single point]",
CCCCNC(=O)[C@H]1C[C@H]1[C@@H](O)[C@H](CO)NC(=O)[C@H](Cc1ccccc1)NC(=O)OC(C)(C)C,,inactive: -1.5%
COc1cc(NS(=O)(=O)c2ccc(NC(=O)c3cccnc3)cc2)ncn1,,inactive: -0.857%
COc1cc2c(c3oc(=O)cc(CC(=O)O)c13)CCC(C)(C)O2,,inactive: -2.42%
O=C(CSCc1ccc(Cl)cc1Cl)Nc1c[nH]c(=O)[nH]c1=O,"inconclusive: 0.1 µM [fluorescent, side channel, full curve, poor fit]",
COc1ccc(NC(=S)N(CCN2CCOCC2)Cc2ccccc2F)cc1,,inactive: 2.09%
COCC1CCCN(C(=O)c2cc(COc3cccc4cccnc34)on2)C1 (configuration not stated),"inconclusive: 14.1 µM [quencher, side channel, partial curve]",
N#CCCCCN1c2cccc3cccc(c23)S1(=O)=O,"inconclusive: 31.6 µM [quencher, side channel, single point]",
Cc1cccc(NC(=O)/C(C#N)=C/c2cccc([N+](=O)[O-])c2)n1,"inconclusive: 31.6 µM [quencher, side channel, single point]",
O=C(NNC(=S)NCc1ccccc1)c1ccc(Br)o1,,inactive: -4.06%

SMILES,Potency,"activity change, negative = inhibition"
CCc1nccn1-c1cc(C(C)(C)C)nc2c(-c3ccc(Cl)cc3)cnn12,"inconclusive: 100 µM [fluorescent, side channel, partial curve, poor fit]",
COc1ccc(CN2C(=O)c3cccnc3C2=O)cc1S(=O)(=O)N(C)Cc1ccco1,"inconclusive: 14.1 µM [quencher, partial curve]",
CN(C)C(=O)CCC(=O)N1CCCC(C(=O)c2ccc3c4c(cccc24)CC3)C1 (configuration not stated),"inconclusive: 28.2 µM [quencher, side channel, partial curve]",
Brc1ccc(-c2csc(N3CCCCCC3)n2)cc1,,inactive: 0.486%
CC(=O)NC1C(c2nc3ccccc3s2)=C(c2ccccc2)C(=O)N1c1ccc(C)cc1 (configuration not stated),"inconclusive: 14.1 µM [quencher, side channel, partial curve]",
CCCn1c(=N)n(CC(=O)c2ccc([N+](=O)[O-])cc2)c2ccccc21,"inconclusive: 17.8 µM [quencher, side channel, partial curve]",
O=[N+]([O-])c1nn(-c2ccc3c(c2)OCCO3)n(O)c1=NC1CCCCCC1,"inconclusive: 15.8 µM [quencher, side channel, partial curve]",
O=[N+]([O-])c1ccc2ccn(C3OCC(O)C(O)C3O)c2c1 (configuration not stated),"inconclusive: 31.6 µM [quencher, side channel, single point]",
CN1CCN(C(=O)CSc2ccc(Cl)cc2)CC1,"inconclusive: 6.31 µM [inhibitor, single point]",
COc1cccc2c(Cl)c(CC=C(Cl)Cl)c(C)nc12,,inactive: 6.35%
Cc1ccccc1OCC(=O)Nc1sc(C(=O)Nc2cccc(C)c2C)c(C)c1C#N,"inconclusive: 35.5 µM [fluorescent, single point]",
CCCc1cc(C(=O)N/N=C/c2cccn2C)cs1,"inconclusive: 15.8 µM [quencher, side channel, partial curve]",
COc1ccccc1OCCNC1CCCC1,,inactive: -2.77%
N=C1SCC(=O)N1c1ncc(Cc2ccc(F)cc2)s1,,inactive: 19.9%
Cc1ccc(C(=O)NCC(=O)Nc2cccc(C(F)(F)F)c2)cc1,"inconclusive: 31.6 µM [fluorescent, side channel, partial curve]",
Cc1cccc(NC(=O)/C=C/c2ccc([N+](=O)[O-])s2)c1,"inconclusive: 17.8 µM [quencher, side channel, partial curve]",
c1c(C2CCCCC2)n[nH]c1CN1CCCCC1,,inactive: -0.22%
O=C(CN1C(=O)/C(=C/c2ccco2)SC1=S)Nc1ccc(C(=O)O)c(O)c1,"inconclusive: 25.1 µM [quencher, side channel, partial curve]",
Cc1ccc(/C=C2/SC(=S)N(c3ccc(S(=O)(=O)Nc4nccs4)cc3)C2=O)cc1,,inactive: -14.7%
CCN(CC)c1ccc(N=Nc2ncn[nH]2)cc1,"inconclusive: 14.1 µM [quencher, side channel, partial curve]",
